Measurements as given in the supplement of paper PMC12217912.
The other results are listed elsewhere or left out. Sequences were assembled here from the parent chain. Values near 0.05 are background.

B1: TEV protease; numbered along this chain (parent)
chain: MGESLFKGPRDYNPISSSICHLTNESDGHTTSLYGIGFGPFIITNKHLFRRNNGTLVVQSLHGVFKVKDTTTLQQHLVDGRDMIIIRMPKDFPPFPQKLKFREPQREERICLVTTNFQTKSMSSMVSDTSCTFPSGDGIFWKHWIQTKDGQCGSPLVSTRDGFIVGIHSASNFTNTNNYFTSVPKNFMELLTNQEAQQWVSGWRLNADSVLWGGHKVFMVKPEEPFQPVKEATQL

Variants of: B1
Assay: raw area under fraction-flipped curve 0-4 h after induction (AUC4h, not background-subtracted), DNA-recorder readout of cleavage of the substrate (dimensionless); higher = more cleavage of the substrate by the protease variant
Details: temperature: 34 °C; time window: 0-4 h after rhamnose induction
Description: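 In vivo DNA recorder in E. coli TOP10(DE3) ΔrhaA at 34 °C. Each TEVp single-site mutant (parent TEVp 0) is paired with a single-site variant of the 7-mer TEVs (canonical ENLYFQ|S). The substrate sits between flexible linkers in a Bxb1-sfGFP-TEVs-SsrA fusion, so cleavage stabilises Bxb1 and speeds flipping of a recombination array, read by NGS. The value is the raw area under the fraction-flipped curve over 0-4 h after rhamnose induction (AUC4h), with ≥20 reads per time point. It is not background-subtracted; inactive controls average about 0.047.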
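Further: Bxb1 expression induced with 0.2% (w/v) L-rhamnose at OD600 near 0.5, cultures sampled hourly, flipped fraction per protease–substrate barcode pair counted by paired-end Illumina sequencing.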

| Variant | area with substrate ENLYDQS | area with substrate ENLYEQS | area with substrate ENLYGQS | area with substrate ENLYHQS | area with substrate ENLYMQS | area with substrate ENLYNQS | area with substrate ENLYPQS | area with substrate ENLYQQS | area with substrate ENLYRQS | area with substrate ENLYSQS | area with substrate ENLYTQS | area with substrate ENLYVQS | area with substrate ENLYWQS | area with substrate ENLYYQS | area with substrate ENLYIQS | area with substrate ENLYKQS | area with substrate ENLYLQS |
| --- | --- | --- | --- | --- | --- | --- | --- | --- | --- | --- | --- | --- | --- | --- | --- | --- | --- |
| V126F | 0.0726 | 0.059 | 0.0543 | 0.0708 | 0.099 | 0.0718 | 0.0829 | 0.0599 | 0.0557 | 0.0761 | 0.104 | 0.125 | 0.129 | 0.0705 |  |  |  |
| Q74V | 0.0759 | 0.0645 | 0.0847 |  | 0.0528 | 0.061 | 0.0645 | 0.0667 |  | 0.0515 | 0.0866 | 0.0879 |  | 0.059 | 0.0832 | 0.055 |  |
| D161C | 0.0452 | 0.0585 | 0.0513 | 0.064 | 0.0613 | 0.0579 | 0.0647 |  | 0.0636 | 0.0515 | 0.0654 |  |  | 0.0649 | 0.0934 | 0.0421 | 0.0853 |
| V217A | 0.0344 | 0.077 | 0.0526 |  |  |  |  | 0.0575 | 0.0688 | 0.0672 | 0.0506 | 0.0497 |  |  | 0.0658 | 0.0601 | 0.0638 |
| H62V |  | 0.0768 | 0.0772 |  | 0.0789 | 0.0686 |  | 0.0702 | 0.057 | 0.0669 | 0.0515 | 0.141 |  |  |  | 0.0622 | 0.081 |
| T114F | 0.0678 | 0.0591 |  | 0.0588 | 0.0809 | 0.0671 | 0.0761 | 0.0608 |  | 0.069 | 0.0949 |  |  |  | 0.162 | 0.0797 |  |
| L77N | 0.0666 | 0.0548 | 0.0685 | 0.0266 | 0.0594 | 0.0626 | 0.0698 | 0.0621 | 0.0592 |  | 0.0584 | 0.0783 | 0.0544 | 0.0796 | 0.0671 | 0.062 | 0.0547 |
| P225F | 0.0514 | 0.071 | 0.0532 | 0.0737 | 0.0728 | 0.0598 | 0.0696 |  |  | 0.0732 |  | 0.0878 |  | 0.0562 |  | 0.0621 |  |
| P225I | 0.0381 | 0.0592 |  |  |  | 0.0332 |  |  | 0.0509 |  |  |  | 0.0859 | 0.0494 |  |  |  |
| E224F | 0.0659 | 0.0799 | 0.0583 | 0.0635 |  | 0.0712 |  | 0.0475 |  |  |  | 0.131 | 0.0768 |  |  | 0.0562 |  |
| E231T | 0.059 | 0.0624 | 0.0622 | 0.0779 | 0.101 | 0.071 |  | 0.0778 | 0.0664 |  |  | 0.108 | 0.0846 | 0.0516 |  | 0.0632 |  |
| Q194R | 0.0387 | 0.052 | 0.0642 | 0.0792 | 0.0762 | 0.056 | 0.0667 | 0.0667 | 0.0618 |  | 0.0777 | 0.139 | 0.105 | 0.059 | 0.102 | 0.0558 |  |
| V157A | 0.0504 |  | 0.0468 |  |  |  |  |  | 0.0669 | 0.0725 |  | 0.115 | 0.0612 |  | 0.0744 |  | 0.0842 |
| G202A | 0.0655 | 0.0433 |  | 0.063 | 0.0811 | 0.0628 |  | 0.0464 |  |  | 0.0645 | 0.0795 | 0.0725 | 0.06 | 0.092 | 0.0301 |  |
| M125V | 0.0554 | 0.0821 |  | 0.0676 | 0.0566 | 0.065 |  |  | 0.0591 | 0.0583 |  | 0.152 |  | 0.0644 | 0.144 | 0.0449 |  |
| K142F |  | 0.0557 | 0.0805 | 0.0687 | 0.0786 | 0.0751 | 0.0622 |  | 0.0594 | 0.0506 | 0.0799 | 0.0888 | 0.0458 | 0.0682 |  |  | 0.0754 |
| Q198I | 0.0958 | 0.0677 | 0.0604 | 0.0776 | 0.0756 | 0.0856 | 0.0646 | 0.0726 |  | 0.0714 |  | 0.112 | 0.0778 | 0.0599 | 0.107 | 0.0668 |  |
| K100R |  | 0.0754 | 0.138 | 0.0688 | 0.11 | 0.0671 | 0.0582 |  | 0.067 |  |  |  |  |  | 0.132 | 0.1 | 0.109 |
| F180V | 0.072 | 0.0477 | 0.0717 | 0.0549 | 0.0558 | 0.0346 | 0.0562 | 0.0569 | 0.0517 |  | 0.0445 | 0.0567 | 0.0656 | 0.0529 | 0.0558 | 0.0536 |  |
| T71C |  | 0.0738 | 0.061 | 0.0346 | 0.0784 | 0.0656 |  | 0.0675 | 0.0488 | 0.0604 | 0.0814 | 0.0698 | 0.0785 | 0.0658 | 0.0766 | 0.0499 |  |
| V200N | 0.0786 | 0.0601 |  |  |  |  | 0.0631 | 0.057 | 0.0557 | 0.0584 | 0.0661 | 0.0851 |  |  |  | 0.0657 |  |
| Q146R |  | 0.0723 | 0.0653 | 0.0695 |  | 0.0847 | 0.0787 | 0.0765 | 0.0543 | 0.0633 | 0.0688 | 0.108 |  | 0.0726 |  | 0.0787 | 0.0736 |
| V78F | 0.0622 | 0.0585 | 0.0721 | 0.0635 |  | 0.0549 |  | 0.0506 |  | 0.0683 |  |  |  |  | 0.109 | 0.0645 | 0.086 |
| F92H |  |  |  | 0.0686 | 0.0728 | 0.0733 |  | 0.0713 | 0.0652 | 0.0728 |  |  | 0.0816 | 0.0582 |  | 0.0503 |  |
| E103L | 0.0823 | 0.106 | 0.0573 | 0.0758 | 0.121 | 0.0678 | 0.0703 | 0.0565 |  | 0.0735 |  |  | 0.0727 | 0.0718 |  |  |  |
| E103C | 0.0618 | 0.0727 | 0.0672 | 0.0376 | 0.107 | 0.0749 | 0.0927 | 0.0787 |  | 0.0839 |  | 0.076 | 0.0932 | 0.0626 | 0.135 | 0.0694 |  |
| S201K |  | 0.0663 | 0.0952 |  | 0.0737 |  | 0.0711 |  |  |  | 0.0695 |  |  | 0.0581 |  | 0.0703 |  |
| S201W | 0.0597 | 0.0571 | 0.0951 | 0.0488 | 0.0835 | 0.0612 | 0.0601 | 0.0254 |  | 0.0666 | 0.0639 | 0.072 | 0.0692 | 0.0556 | 0.087 | 0.0583 |  |
